Assay results taken from the supplement of paper PMC11741623.
This is one part of the list. Interaction screen of human proteins with wild-type SARS-CoV-2 proteins by split-DHFR complementation in yeast, 1 µg/mL methotrexate. Value = fitness of the pair (three or more lineages) minus that of the viral protein without a human partner, on a scale set by negative (0) and fused positive (1) controls, mean of up to three cultures; higher = more likely to interact. Active = false discovery rate below 0.05 (one-sided t-test) in at least one culture. Nearly all pairs are not hits, and differences among them are mostly noise (correlation between cultures about 0.3); most hits were seen in one culture only. Human sequences are the Swiss-Prot entries looked up by gene name; the clone may be another isoform. NSP2 values were corrected by the authors for a growth advantage. Listed are human proteins with a hit and a random twelfth of the others.

Assays:
Test in all cases: yeast fitness gain over the viral ORF with no human partner (scaled fitness); higher = more likely to interact
[1] = target: SARS-CoV-2 M
Experimental: (§1)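 Split mouse DHFR complementation in pooled diploid yeast: human ORFeome clones carry one fragment and viral ORFs the other; barcoded lineages compete in 1 µg/mL methotrexate and fitness is read by barcode sequencing in up to three cultures.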

[2] = target: SARS-CoV-2 NSP1
Experimental: as §1

[3] = target: SARS-CoV-2 NSP10
Experimental: as §1

[4] = target: SARS-CoV-2 NSP12
Experimental: as §1

[5] = target: SARS-CoV-2 NSP13
Experimental: as §1

[6] = target: SARS-CoV-2 NSP14
Experimental: as §1

[7] = target: SARS-CoV-2 NSP15
Experimental: as §1

[8] = target: SARS-CoV-2 NSP2
Experimental: as §1

[9] = target: SARS-CoV-2 NSP5
Experimental: as §1

[10] = target: SARS-CoV-2 NSP7
Experimental: as §1

[11] = target: SARS-CoV-2 NSP8
Experimental: as §1

[12] = target: SARS-CoV-2 ORF10
Experimental: as §1

[13] = target: SARS-CoV-2 ORF3B
Experimental: as §1

[14] = target: SARS-CoV-2 ORF6
Experimental: as §1

[15] = target: SARS-CoV-2 ORF7A
Experimental: as §1

[16] = target: SARS-CoV-2 ORF7B
Experimental: as §1

[17] = target: SARS-CoV-2 ORF8
Experimental: as §1

[18] = target: SARS-CoV-2 ORF9B
Experimental: as §1

[19] = target: SARS-CoV-2 ORF9Bwu (the 73-codon ORF)
Experimental: as §1

[20] = target: SARS-CoV-2 S
Experimental: as §1

[21] = target: SARS-CoV-2 NSP16
Experimental: as §1

[22] = target: SARS-CoV-2 NSP6
Experimental: as §1

[23] = target: SARS-CoV-2 NSP9
Experimental: as §1

[24] = target: SARS-CoV-2 ORF3A
Experimental: as §1

[25] = target: SARS-CoV-2 N
Experimental: as §1

[26] = target: SARS-CoV-2 NSP4
Experimental: as §1

Measured: yeast fitness gain

B1: LIN28A, Q9H9Z2 (protein)
chain: MGSVSNQQFAGGCAKAAEEAPEEAPEDAARAADEPQLLHGAGICKWFNVRMGFGFLSMTARAGVALDPPVDVFVHQSKLHMEGFRSLKEGEAVEFTFKKSAKGLESIRVTGPGGVFCIGSERRPKGKSMQKRRSKGDRCYNCGGLDHHAKECKLPPQPKKCHFCQSISHMVASCPLKAQQGPSAQGKPTYFREEEEEIHSPTLLPEAQN
inactive: [1] 0.0532 | [2] -0.0506 | [3] -0.0996 | [4] 0.0673 | [5] -0.0527 | [6] -0.351 | [7] 0.0154 | [8] -0.0318 | [9] 0.0439 | [10] 0.0319 | [11] -0.0284 | [12] -0.0382 | [13] 0.0261 | [14] -0.0112 | [15] -0.0497 | [16] 0.000876 | [17] 0.0389 | [18] -0.0224 | [19] 0.105 | [20] 0.0387

B2: KCNK16, Q96T55 (protein)
chain: MPSAGLCSCWGGRVLPLLLAYVCYLLLGATIFQLLERQAEAQSRDQFQLEKLRFLENYTCLDQWAMEQFVQVIMEAWVKGVNPKGNSTNPSNWDFGSSFFFAGTVVTTIGYGNLAPSTEAGQVFCVFYALLGIPLNVIFLNHLGTGLRAHLAAIERWEDRPRRSQVLQVLGLALFLTLGTLVILIFPPMVFSHVEGWSFSEGFYFAFITLSTIGFGDYVVGTDPSKHYISVYRSLAAIWILLGLAWLALILPLGPLLLHRCCQLWLLSLRQGCGAKAAPGRRPRRGSTAARGVQVTPQDFPISKKGLGS
inactive: [1] 0.0744 | [2] -0.0423 | [3] 0.0018 | [4] 0.0319 | [5] -0.0805 | [6] -0.183 | [7] -0.00726 | [21] 0.117 | [8] -0.19 | [9] -0.00498 | [22] -0.0233 | [10] -0.0882 | [11] 0.0522 | [23] -0.0656 | [12] 0.0117 | [24] -0.149 | [13] 0.0351 | [14] -0.0162 | [15] -0.011 | [16] -0.0255 | [17] -0.0351 | [18] -0.0778 | [19] 0.0241 | [20] 0.0342

B3: KRTAP3-1, Q9BYR8 (protein)
chain: MYCCALRSCSVPTGPATTFCSFDKSCRCGVCLPSTCPHEISLLQPICCDTCPPPCCKPDTYVPTCWLLNNCHPTPGLSGINLTTYVQPGCESPCEPRC
inactive: [1] 0.0975 | [25] -0.119 | [2] -0.00576 | [3] 0.0102 | [4] 0.022 | [5] -0.0524 | [7] -0.0496 | [21] -0.0329 | [8] -0.109 | [9] 0.048 | [22] -0.0293 | [10] -0.0166 | [11] 0.0243 | [23] -0.201 | [12] 0.0412 | [24] 0.0149 | [13] -0.0366 | [14] -0.0253 | [15] 0.0224 | [16] 0.0451 | [17] -0.00512 | [18] -0.106 | [19] -0.186 | [20] -0.043

B4: MS4A7, Q9GZW8 (protein)
chain: MLLQSQTMGVSHSFTPKGITIPQREKPGHMYQNEDYLQNGLPTETTVLGTVQILCCLLISSLGAILVFAPYPSHFNPAISTTLMSGYPFLGALCFGITGSLSIISGKQSTKPFDLSSLTSNAVSSVTAGAGLFLLADSMVALRTASQHCGSEMDYLSSLPYSEYYYPIYEIKDCLLTSVSLTGVLVVMLIFTVLELLLAAYSSVFWWKQLYSNNPGSSFSSTQSQDHIQQVKKSSSRSWI
inactive: [1] -0.00117 | [2] -0.0562 | [3] 0.0187 | [4] 0.0666 | [5] -0.163 | [8] -0.0739 | [11] 0.001 | [12] -0.207 | [13] 0.0295 | [14] -0.185 | [17] -0.016 | [18] 0.0374 | [20] -0.0359

B5: MTMR12, Q9C0I1 (protein)
chain: MLGKGVVGGGGGTKAPKPSFVSYVRPEEIHTNEKEVTEKEVTLHLLPGEQLLCEASTVLKYVQEDSCQHGVYGRLVCTDFKIAFLGDDESALDNDETQFKNKVIGENDITLHCVDQIYGVFDEKKKTLFGQLKKYPEKLIIHCKDLRVFQFCLRYTKEEEVKRIVSGIIHHTQAPKLLKRLFLFSYATAAQNNTVTDPKNHTVMFDTLKDWCWELERTKGNMKYKAVSVNEGYKVCERLPAYFVVPTPLPEENVQRFQGHGIPIWCWSCHNGSALLKMSALPKEQDDGILQIQKSFLDGIYKTIHRPPYEIVKTEDLSSNFLSLQEIQTAYSKFKQLFLIDNSTEFWDTDIKWFSLLESSSWLDIIRRCLKKAIEITECMEAQNMNVLLLEENASDLCCLISSLVQLMMDPHCRTRIGFQSLIQKEWVMGGHCFLDRCNHLRQNDKEEVPVFLLFLDCVWQLVHQHPPAFEFTETYLTVLSDSLYIPIFSTFFFNSPHQKDTNMGREGQDTQSKPLNLLTVWDWSVQFEPKAQTLLKNPLYVEKPKLDKGQRKGMRFKHQRQLSLPLTQSKSSPKRGFFREETDHLIKNLLGKRISKLINSSDELQDNFREFYDSWHSKSTDYHGLLLPHIEGPEIKVWAQRYLRWIPEAQILGGGQVATLSKLLEMMEEVQSLQEKIDERHHSQQAPQAEAPCLLRNSARLSSLFPFALLQRHSSKPVLPTSGWKALGDEDDLAKREDEFVDLGDV
inactive: [1] 0.0856 | [25] 0.0975 | [2] 0.013 | [3] -0.0453 | [4] 0.0876 | [5] 0.0553 | [6] 0.00264 | [8] -0.0337 | [26] 0.202 | [9] 0.0516 | [22] -0.00966 | [10] -0.147 | [11] 0.0902 | [12] 0.00987 | [24] -0.0275 | [13] 0.0635 | [14] -0.028 | [15] 0.00303 | [16] -0.0071 | [17] -0.033 | [18] -0.0373 | [19] -0.0105 | [20] 0.141
